# Experimental data as given in PubChem BioAssay AID588591 (National Center for Advancing Translational Sciences (NCATS), 2011).
# Out of some 390,000 compounds screened, about 4,700 (1.2%) were called active. The shares of active, inactive and inconclusive entries below differ from those in the screen. The call rests on the fitted dose curve; in most records, active means well fitted inhibition curve with a large enough effect; inconclusive means small, poorly fitted or top-dose-only effect, or another doubt; inactive means no such curve, though single readings can be large or run the other way. A potency beside an inconclusive call is a rough fit, not a confirmed value.
# Biological target: DNA polymerase eta (Homo sapiens) (UniProt Q9Y253)
# Test: qHTS for Inhibitors of Polymerase Eta
# Settings: recombinant Pol eta, fluorescent DNA replication assay; series mostly up to 114 µM
# Procedure, shortened: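 Pol eta (10 nM) was preincubated with compounds for 15 min at room temperature, after which fluorescent replication substrate (50 nM final) was added to start the reaction. Fluorescence was read kinetically at 0 and 10 min.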
# Potency means the concentration at half of the fitted maximal effect; tags describe the fitted curve by direction and shape.
# UniProt Q9Y253, sequence (Q9Y253 whole entry, looked up): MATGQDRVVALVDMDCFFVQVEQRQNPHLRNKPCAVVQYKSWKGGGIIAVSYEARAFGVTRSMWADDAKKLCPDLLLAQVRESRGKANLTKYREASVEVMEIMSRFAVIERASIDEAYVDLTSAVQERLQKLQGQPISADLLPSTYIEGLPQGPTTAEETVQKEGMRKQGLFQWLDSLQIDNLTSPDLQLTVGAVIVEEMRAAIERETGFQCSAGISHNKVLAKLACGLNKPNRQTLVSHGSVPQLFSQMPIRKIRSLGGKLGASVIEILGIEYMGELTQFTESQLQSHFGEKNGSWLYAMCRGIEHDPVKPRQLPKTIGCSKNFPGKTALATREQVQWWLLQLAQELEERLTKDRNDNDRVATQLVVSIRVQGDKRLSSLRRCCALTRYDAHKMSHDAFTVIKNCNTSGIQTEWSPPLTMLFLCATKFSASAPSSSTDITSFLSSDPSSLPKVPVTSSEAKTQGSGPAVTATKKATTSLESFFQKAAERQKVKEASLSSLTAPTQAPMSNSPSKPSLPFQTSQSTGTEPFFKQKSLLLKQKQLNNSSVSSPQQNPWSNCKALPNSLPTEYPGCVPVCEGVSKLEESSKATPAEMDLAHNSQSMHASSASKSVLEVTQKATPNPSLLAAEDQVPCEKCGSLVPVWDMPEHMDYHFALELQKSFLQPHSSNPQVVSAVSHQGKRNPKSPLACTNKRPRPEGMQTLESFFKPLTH
row,Compound,Potency
1,CCc1ccc(NC(=O)CS(=O)CC(=O)NCCCc2ccccc2)cc1 (centres undefined),"inconclusive: 89.1 µM [inhibitor, single point]"
2,O=C(CNc1cccc(S(=O)(=O)N2CCCCC2)c1)Nc1ccc(C(F)(F)F)cc1,"inconclusive: 39.8 µM [inhibitor, partial curve, poor fit]"
3,CCCCCOC(=O)C1=C(C)N(C)C(=O)NC1c1cc(Br)c(O)c(OC)c1 (centres undefined),"inconclusive: 100 µM [inhibitor, partial curve, poor fit]"
4,CCOC(=O)c1ccc(NC(=O)CSc2nnc(Cc3cccs3)n2C)cc1,"inconclusive: 70.8 µM [inhibitor, partial curve, poor fit]"
5,O=C(O)c1ccc(N=Nc2c(O)[nH]c3ccc(Br)cc23)cc1,"inconclusive: 7.94 µM [inhibitor, partial curve, poor fit]"
6,COc1ccc(/C=C2\SC(=O)N(CCCC(=O)Nc3cc(Cl)ccc3C(=O)O)C2=O)cc1,"inconclusive: 15.8 µM [inhibitor, full curve, poor fit]"
7,O=C(Nc1ccc(Cl)cc1)c1cccs1,"inconclusive: 3.98 µM [inhibitor, full curve, poor fit]"
8,COc1cc(/C=C/C(=O)NC(C)(C)C)ccc1OCc1ccccc1,"inconclusive: 100 µM [inhibitor, partial curve, poor fit]"
9,COc1ccc(CC(CC(=O)O)C(=O)NCc2ccccc2)cc1 (centres undefined),"inconclusive: 89.1 µM [inhibitor, single point]"
10,O=c1[nH]c(=S)[nH]c2sc3c(c12)CCCCCC3,inactive
11,CCN1C(=O)/C(=C/c2ccc(N3CCCC3)cc2)NC1=S,"inconclusive: 25.1 µM [inhibitor, partial curve, poor fit]"
12,O=C(COC(=O)C1(c2ccccc2F)CCCC1)Nc1ncc(C(F)(F)F)cc1Cl,"inconclusive: 17.8 µM [inhibitor, partial curve, poor fit]"
13,Cc1ccc2c(c1)-c1nc(-c3ccccc3)cc(-c3ccccc3)c1CO2,inactive
14,CCCCOc1ccc(C(=O)N/N=C/c2ccc(OCCN3CCCCC3)c(OC)c2)cc1,"inconclusive: 15.8 µM [inhibitor, partial curve]"
15,Cc1ccc(-c2csc3ncn(CC#N)c(=O)c23)cc1C,active: 20 µM
16,O=C1/C(=C\c2ccc(Br)cc2)SC(=S)N1NS(=O)(=O)c1ccccc1,active: 50.1 µM
17,CCOC(=O)Nc1nc(-c2ccc(F)cc2F)cs1,inactive
18,O=C(O)CN1C(=O)/C(=C\c2ccccc2OCc2ccc(Cl)cc2Cl)SC1=S,active: 44.7 µM
19,Nc1ccc(Oc2ccc(N)c([N+](=O)[O-])c2)cc1[N+](=O)[O-],inactive
20,Cc1cc2ccccn2c1C(=O)c1ccccc1F,"inconclusive: 79.4 µM [inhibitor, partial curve, poor fit]"

row,Compound,Potency
1,Cn1c(=NC(=O)c2ccccc2[N+](=O)[O-])sc2cc(S(C)(=O)=O)ccc21,"inconclusive: 2 µM [inhibitor, partial curve, poor fit]"
2,CCCn1c(NC(=O)c2ccc([N+](=O)[O-])o2)nc2ccccc21,"inconclusive: 10 µM [inhibitor, full curve, poor fit]"
3,COC(=O)c1[nH]c2cc(OC)c(OC)cc2c1NC(=O)c1cccc(OC)c1,"inconclusive: 12.6 µM [inhibitor, partial curve, poor fit]"
4,CC(=O)Nc1ccc(NC(=O)CSc2nc(=O)n3cccc(C)c3n2)cc1,"inconclusive: 22.4 µM [inhibitor, partial curve, poor fit]"
5,O=c1[nH]c(=O)n(Cc2ccco2)c2c1C(C(F)(F)F)(C(F)(F)F)N=C(C1CCCCC1)N2,"inconclusive: 28.2 µM [inhibitor, partial curve]"
6,O=c1oc2ccccc2c(Nc2ccc3ncccc3c2)c1[N+](=O)[O-],"inconclusive: 35.5 µM [inhibitor, partial curve, poor fit]"
7,COc1cc2cc3c(N)c(C(=O)NCc4ccco4)sc3nc2cc1OC,"inconclusive: 14.1 µM [inhibitor, full curve, poor fit]"
8,S=c1[nH]nc(COc2ccccc2)n1/N=C/C(Cl)=C/c1ccccc1,"inconclusive: 100 µM [inhibitor, partial curve, poor fit]"
9,CC(CCc1ccccc1)NC(=O)Cn1ncc2c3ccccc3n(Cc3cccc(Cl)c3)c2c1=O (centres undefined),"inconclusive: 100 µM [inhibitor, partial curve, poor fit]"
10,CC1=C(C#N)c2nc(N)c(C#N)c(C)c2/C1=C\c1ccc(-c2ccccc2C(=O)O)o1,active: 7.94 µM
11,CCOc1ccc(NC(=O)CSc2oc(-c3ccco3)nc2S(=O)(=O)c2ccc(Cl)cc2)cc1,"inconclusive: 100 µM [inhibitor, single point]"
12,Cc1cccc2c(C(=O)n3cccn3)cc(-c3ccccc3Cl)nc12,"inconclusive: 25.1 µM [inhibitor, partial curve, poor fit]"
13,COc1ccc2c(c1)c(N=O)c(O)n2C,"inconclusive: 3.55 µM [inhibitor, partial curve, poor fit]"
14,COc1ccc2c(N)c(C(=O)NN)[nH]c2c1,inactive
15,O=S1(=O)C=C(Sc2nc3cc(Cl)ccc3o2)c2ccccc21,"inconclusive: 28.2 µM [inhibitor, single point]"
16,O=C(N=Nc1c(O)[nH]c2ccccc12)c1cc(-c2cccs2)[nH]n1,active: 56.2 µM
17,O=c1[nH]c(SCc2nc3c(cnn3-c3ccccc3)c(=O)[nH]2)nc2ccccc12,"inconclusive: 28.2 µM [inhibitor, partial curve, poor fit]"
18,CCOC(=O)c1cc(-c2ccco2)nc2c1c(C)nn2CCC#N,"inconclusive: 10 µM [inhibitor, partial curve]"
19,CC(=O)[C@@H]1[C@@H](C(=O)c2ccc(C)cc2)[C@]2(C(=O)Nc3ccccc32)[C@H]2C=Cc3cc(F)ccc3N12,"inconclusive: 70.8 µM [inhibitor, partial curve, poor fit]"
